# According to the supplement of paper PMC8728848:
# Some of the results follow.
# Key:
# Assay in all cases: glycan array binding signal (z-score within array); higher = stronger binding
# Settings in all cases: glycan notation: IUPAC condensed, linker removed
# [1] = biological target: GlcNAc(b1-2)[GlcNAc(b1-4)]Man(a1-3)[GlcNAc(b1-4)][GlcNAc(b1-2)[GlcNAc(b1-6)]Man(a1-6)]Man(b1-4)GlcNAc(b1-4)GlcNAc
# Procedure, shortened: (§1)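 Arrays were curated from the Consortium for Functional Glycomics database, 3228 in total, and kept only where the protein sequence was available. Binding is expressed as a within-array Z-score. This score was averaged across arrays of the same protein sequence at different concentrations or buffers and across linkers, and negative values can be read as non-binding.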
# [2] = biological target: GlcNAc(b1-2)[GlcNAc(b1-4)]Man(a1-3)[GlcNAc(b1-4)][GlcNAc(b1-2)[GlcNAc(b1-6)]Man(a1-6)]Man(b1-4)GlcNAc(b1-4)[Fuc(a1-6)]GlcNAc
# Procedure, shortened: as §1
# [3] = biological target: GlcNAc(b1-2)[GlcNAc(b1-6)]Man(a1-6)[GlcNAc(b1-2)Man(a1-3)]Man(b1-4)GlcNAc(b1-4)GlcNAc
# Procedure, shortened: as §1
# [4] = biological target: GlcNAc(b1-2)[GlcNAc(b1-6)]Man(a1-6)[GlcNAc(b1-2)Man(a1-3)]Man(b1-4)GlcNAc(b1-4)[Fuc(a1-6)]GlcNAc
# Procedure, shortened: as §1
# [5] = biological target: GlcNAc(b1-2)[GlcNAc(b1-6)]Man(a1-6)[GlcNAc(b1-4)][GlcNAc(b1-2)Man(a1-3)]Man(b1-4)GlcNAc(b1-4)GlcNAc
# Procedure, shortened: as §1
# GlcNAc(b1-3)Fuc = biological target: GlcNAc(b1-3)Fuc
# Procedure, shortened: as §1
# GlcNAc(b1-3)Gal = biological target: GlcNAc(b1-3)Gal
# Procedure, shortened: as §1
# [6] = biological target: GlcNAc(b1-3)Gal(b1-3)GalNAc
# Procedure, shortened: as §1
# GlcNAc(b1-3)Gal(b1-4)Glc = biological target: GlcNAc(b1-3)Gal(b1-4)Glc
# Procedure, shortened: as §1
# [7] = biological target: GlcNAc(b1-3)Gal(b1-4)GlcNAc
# Procedure, shortened: as §1
# [8] = biological target: GlcNAc(b1-3)Gal(b1-4)GlcNAc(b1-2)Man(a1-3)[GlcNAc(b1-3)Gal(b1-4)GlcNAc(b1-2)Man(a1-6)]Man(b1-4)GlcNAc(b1-4)GlcNAc
# Procedure, shortened: as §1
# [9] = biological target: GlcNAc(b1-3)Gal(b1-4)GlcNAc(b1-2)Man(a1-3)[GlcNAc(b1-3)Gal(b1-4)GlcNAc(b1-2)Man(a1-6)]Man(b1-4)GlcNAc(b1-4)[Fuc(a1-6)]GlcNAc
# Procedure, shortened: as §1
# [10] = biological target: GlcNAc(b1-3)Gal(b1-4)GlcNAc(b1-2)[GlcNAc(b1-3)Gal(b1-4)GlcNAc(b1-6)]Man(a1-6)[GlcNAc(b1-3)Gal(b1-4)GlcNAc(b1-2)Man(a1-3)]Man(b1-4)GlcNAc(b1-4)GlcNAc
# Procedure, shortened: as §1
# [11] = biological target: GlcNAc(b1-3)Gal(b1-4)GlcNAc(b1-3)Gal(b1-4)GlcNAc
# Procedure, shortened: as §1
# [12] = biological target: GlcNAc(b1-3)Gal(b1-4)GlcNAc(b1-3)Gal(b1-4)GlcNAc(b1-2)Man(a1-3)[GlcNAc(b1-3)Gal(b1-4)GlcNAc(b1-3)Gal(b1-4)GlcNAc(b1-2)Man(a1-6)]Man(b1-4)GlcNAc(b1-4)GlcNAc
# Procedure, shortened: as §1
# [13] = biological target: GlcNAc(b1-3)Gal(b1-4)GlcNAc(b1-3)Gal(b1-4)GlcNAc(b1-2)Man(a1-3)[GlcNAc(b1-3)Gal(b1-4)GlcNAc(b1-3)Gal(b1-4)GlcNAc(b1-2)Man(a1-6)]Man(b1-4)GlcNAc(b1-4)[Fuc(a1-6)]GlcNAc
# Procedure, shortened: as §1
# [14] = biological target: GlcNAc(b1-3)Gal(b1-4)GlcNAc(b1-3)Gal(b1-4)GlcNAc(b1-2)[GlcNAc(b1-3)Gal(b1-4)GlcNAc(b1-3)Gal(b1-4)GlcNAc(b1-6)]Man(a1-6)[GlcNAc(b1-3)Gal(b1-4)GlcNAc(b1-3)Gal(b1-4)GlcNAc(b1-2)Man(a1-3)]Man(b1-4)GlcNAc(b1-4)[Fuc(a1-6)]GlcNAc
# Procedure, shortened: as §1
# [15] = biological target: GlcNAc(b1-3)Gal(b1-4)GlcNAc(b1-3)Gal(b1-4)GlcNAc(b1-3)Gal(b1-4)GlcNAc(b1-2)Man(a1-3)[GlcNAc(b1-3)Gal(b1-4)GlcNAc(b1-3)Gal(b1-4)GlcNAc(b1-3)Gal(b1-4)GlcNAc(b1-2)Man(a1-6)]Man(b1-4)GlcNAc(b1-4)GlcNAc
# Procedure, shortened: as §1
# [16] = biological target: GlcNAc(b1-3)Gal(b1-4)GlcNAc(b1-3)Gal(b1-4)GlcNAc(b1-3)Gal(b1-4)GlcNAc(b1-2)Man(a1-3)[GlcNAc(b1-3)Gal(b1-4)GlcNAc(b1-3)Gal(b1-4)GlcNAc(b1-3)Gal(b1-4)GlcNAc(b1-2)Man(a1-6)]Man(b1-4)GlcNAc(b1-4)[Fuc(a1-6)]GlcNAc
# Procedure, shortened: as §1
# [17] = biological target: GlcNAc(b1-3)Gal(b1-4)GlcNAc(b1-3)Gal(b1-4)GlcNAc(b1-3)Gal(b1-4)GlcNAc(b1-2)[GlcNAc(b1-3)Gal(b1-4)GlcNAc(b1-3)Gal(b1-4)GlcNAc(b1-3)Gal(b1-4)GlcNAc(b1-6)]Man(a1-6)[GlcNAc(b1-3)Gal(b1-4)GlcNAc(b1-3)Gal(b1-4)GlcNAc(b1-3)Gal(b1-4)GlcNAc(b1-2)Man(a1-3)]Man(b1-4)GlcNAc(b1-4)[Fuc(a1-6)]GlcNAc
# Procedure, shortened: as §1
# [18] = biological target: GlcNAc(b1-3)Gal(b1-4)GlcNAc(b1-3)Gal(b1-4)GlcNAc(b1-3)Gal(b1-4)GlcNAc(b1-3)Gal(b1-4)GlcNAc(b1-2)Man(a1-3)[GlcNAc(b1-3)Gal(b1-4)GlcNAc(b1-3)Gal(b1-4)GlcNAc(b1-3)Gal(b1-4)GlcNAc(b1-3)Gal(b1-4)GlcNAc(b1-2)Man(a1-6)]Man(b1-4)GlcNAc(b1-4)GlcNAc
# Procedure, shortened: as §1
# [19] = biological target: GlcNAc(b1-3)Gal(b1-4)GlcNAc(b1-3)Gal(b1-4)GlcNAc(b1-3)Gal(b1-4)GlcNAc(b1-3)Gal(b1-4)GlcNAc(b1-2)Man(a1-3)[GlcNAc(b1-3)Gal(b1-4)GlcNAc(b1-3)Gal(b1-4)GlcNAc(b1-3)Gal(b1-4)GlcNAc(b1-3)Gal(b1-4)GlcNAc(b1-2)Man(a1-6)]Man(b1-4)GlcNAc(b1-4)[Fuc(a1-6)]GlcNAc
# Procedure, shortened: as §1
# [20] = biological target: GlcNAc(b1-3)Gal(b1-4)GlcNAc(b1-3)Gal(b1-4)GlcNAc(b1-3)Gal(b1-4)GlcNAc(b1-3)Gal(b1-4)GlcNAc(b1-2)[GlcNAc(b1-3)Gal(b1-4)GlcNAc(b1-3)Gal(b1-4)GlcNAc(b1-3)Gal(b1-4)GlcNAc(b1-3)Gal(b1-4)GlcNAc(b1-6)]Man(a1-6)[GlcNAc(b1-3)Gal(b1-4)GlcNAc(b1-3)Gal(b1-4)GlcNAc(b1-3)Gal(b1-4)GlcNAc(b1-3)Gal(b1-4)GlcNAc(b1-2)Man(a1-3)]Man(b1-4)GlcNAc(b1-4)[Fuc(a1-6)]GlcNAc
# Procedure, shortened: as §1
# [21] = biological target: GlcNAc(b1-3)Gal(b1-4)GlcNAc(b1-3)Gal(b1-4)GlcNAc(b1-3)GalNAc
# Procedure, shortened: as §1
# [22] = biological target: GlcNAc(b1-3)Gal(b1-4)GlcNAc(b1-3)GalNAc
# Procedure, shortened: as §1
# [23] = biological target: GlcNAc(b1-3)Gal(b1-4)GlcNAc(b1-3)[GlcNAc(b1-3)Gal(b1-4)GlcNAc(b1-3)]GalNAc
# Procedure, shortened: as §1
# [24] = biological target: GlcNAc(b1-3)Gal(b1-4)GlcNAc(b1-6)[Gal(b1-3)]GalNAc
# Procedure, shortened: as §1
# [25] = biological target: GlcNAc(b1-3)Gal(b1-4)GlcNAc(b1-6)[GlcNAc(b1-3)Gal(b1-3)]GalNAc
# Procedure, shortened: as §1
# [26] = biological target: GlcNAc(b1-3)Gal(b1-4)GlcNAc(b1-6)[GlcNAc(b1-3)]Gal(b1-4)GlcNAc
# Procedure, shortened: as §1
# GlcNAc(b1-3)GalNAc = biological target: GlcNAc(b1-3)GalNAc
# Procedure, shortened: as §1
# GlcNAc(b1-3)Man = biological target: GlcNAc(b1-3)Man
# Procedure, shortened: as §1
# [27] = biological target: GlcNAc(b1-3)[GlcNAc(b1-4)][GlcNAc(b1-6)]GlcNAc
# Procedure, shortened: as §1
# [28] = biological target: GlcNAc(b1-3)[GlcNAc(b1-6)]Gal(b1-4)GlcNAc
# Procedure, shortened: as §1
# [29] = biological target: GlcNAc(b1-3)[GlcNAc(b1-6)]GalNAc
# Procedure, shortened: as §1
# [30] = biological target: GlcNAc(b1-4)Gal(b1-4)GlcNAc
# Procedure, shortened: as §1
# GlcNAc(b1-4)GlcNAc = biological target: GlcNAc(b1-4)GlcNAc
# Procedure, shortened: as §1
# [31] = biological target: GlcNAc(b1-4)GlcNAc(b1-4)GlcNAc
# Procedure, shortened: as §1
# [32] = biological target: GlcNAc(b1-4)GlcNAc(b1-4)GlcNAc(b1-4)GlcNAc(b1-4)GlcNAc
# Procedure, shortened: as §1
binder,measurement,setting,value
Clone730PsrP (Streptococcus pneumoniae) (protein) MDHHHHHHHHHHASENLYFQGAMVVGSQTAAATEATAKKVEEDRKKPASDYVASVTNVNLQSYAKRRKRSVDSIEQLLASIKNAAVFSGNTIVNGAPAINASLNIAKSETKVYTGEGVDSVYRVPIYYKLKVTNDGSKLTFTYTVTYVNPKTNDLGNISSMRPGYSIYNSGTSTQTMLTLGSDLGKPSGVKNYITDKNGRQVLSYNTSTMTTQGSGYTWGNGAQMNGFFAKKGYGLTSSWTVPITGTDTSFTFTPYAARTDRIGINYFNGGGKVVESSTT,glycan array binding signal (z-score),[1],-0.485
same,glycan array binding signal (z-score),[2],-0.565
same,glycan array binding signal (z-score),[3],-0.425
same,glycan array binding signal (z-score),[4],-0.31
same,glycan array binding signal (z-score),[5],-0.462
same,glycan array binding signal (z-score),GlcNAc(b1-3)Fuc,0.545
same,glycan array binding signal (z-score),GlcNAc(b1-3)Gal,-0.502
same,glycan array binding signal (z-score),[6],-0.014
same,glycan array binding signal (z-score),GlcNAc(b1-3)Gal(b1-4)Glc,-0.514
same,glycan array binding signal (z-score),[7],-0.445
same,glycan array binding signal (z-score),[8],-0.226
same,glycan array binding signal (z-score),[9],0.003
same,glycan array binding signal (z-score),[10],-0.371
same,glycan array binding signal (z-score),[11],-0.488
same,glycan array binding signal (z-score),[12],0.031
same,glycan array binding signal (z-score),[13],-0.187
same,glycan array binding signal (z-score),[14],-0.544
same,glycan array binding signal (z-score),[15],-0.481
same,glycan array binding signal (z-score),[16],-0.109
same,glycan array binding signal (z-score),[17],-0.446
same,glycan array binding signal (z-score),[18],0.123
same,glycan array binding signal (z-score),[19],-0.439
same,glycan array binding signal (z-score),[20],-0.445
same,glycan array binding signal (z-score),[21],-0.583
same,glycan array binding signal (z-score),[22],-0.186
same,glycan array binding signal (z-score),[23],0.149
same,glycan array binding signal (z-score),[24],-0.413
same,glycan array binding signal (z-score),[25],-0.367
same,glycan array binding signal (z-score),[26],-0.496
same,glycan array binding signal (z-score),GlcNAc(b1-3)GalNAc,-0.331
same,glycan array binding signal (z-score),GlcNAc(b1-3)Man,1.37
same,glycan array binding signal (z-score),[27],-0.013
same,glycan array binding signal (z-score),[28],-0.514
same,glycan array binding signal (z-score),[29],-0.052
same,glycan array binding signal (z-score),[30],0.625
same,glycan array binding signal (z-score),GlcNAc(b1-4)GlcNAc,0.226
same,glycan array binding signal (z-score),[31],0.159
same,glycan array binding signal (z-score),[32],0.515
